# Out of some 350,000 compounds screened, about 31,000 (8.9%) were called active. The shares of active, inactive and inconclusive entries below differ from those in the screen. The call rests on the fitted dose curve; in most records, active means well fitted inhibition curve with a large enough effect; inconclusive means small, poorly fitted or top-dose-only effect; inactive means no such curve, though single readings can be large or run the other way. A potency beside an inconclusive call is a rough fit, not a confirmed value.
# Target: Histone-lysine N-methyltransferase EHMT2 (Homo sapiens) (UniProt Q96KQ7)
# Sequence of UniProt Q96KQ7 (Q96KQ7 whole entry, looked up): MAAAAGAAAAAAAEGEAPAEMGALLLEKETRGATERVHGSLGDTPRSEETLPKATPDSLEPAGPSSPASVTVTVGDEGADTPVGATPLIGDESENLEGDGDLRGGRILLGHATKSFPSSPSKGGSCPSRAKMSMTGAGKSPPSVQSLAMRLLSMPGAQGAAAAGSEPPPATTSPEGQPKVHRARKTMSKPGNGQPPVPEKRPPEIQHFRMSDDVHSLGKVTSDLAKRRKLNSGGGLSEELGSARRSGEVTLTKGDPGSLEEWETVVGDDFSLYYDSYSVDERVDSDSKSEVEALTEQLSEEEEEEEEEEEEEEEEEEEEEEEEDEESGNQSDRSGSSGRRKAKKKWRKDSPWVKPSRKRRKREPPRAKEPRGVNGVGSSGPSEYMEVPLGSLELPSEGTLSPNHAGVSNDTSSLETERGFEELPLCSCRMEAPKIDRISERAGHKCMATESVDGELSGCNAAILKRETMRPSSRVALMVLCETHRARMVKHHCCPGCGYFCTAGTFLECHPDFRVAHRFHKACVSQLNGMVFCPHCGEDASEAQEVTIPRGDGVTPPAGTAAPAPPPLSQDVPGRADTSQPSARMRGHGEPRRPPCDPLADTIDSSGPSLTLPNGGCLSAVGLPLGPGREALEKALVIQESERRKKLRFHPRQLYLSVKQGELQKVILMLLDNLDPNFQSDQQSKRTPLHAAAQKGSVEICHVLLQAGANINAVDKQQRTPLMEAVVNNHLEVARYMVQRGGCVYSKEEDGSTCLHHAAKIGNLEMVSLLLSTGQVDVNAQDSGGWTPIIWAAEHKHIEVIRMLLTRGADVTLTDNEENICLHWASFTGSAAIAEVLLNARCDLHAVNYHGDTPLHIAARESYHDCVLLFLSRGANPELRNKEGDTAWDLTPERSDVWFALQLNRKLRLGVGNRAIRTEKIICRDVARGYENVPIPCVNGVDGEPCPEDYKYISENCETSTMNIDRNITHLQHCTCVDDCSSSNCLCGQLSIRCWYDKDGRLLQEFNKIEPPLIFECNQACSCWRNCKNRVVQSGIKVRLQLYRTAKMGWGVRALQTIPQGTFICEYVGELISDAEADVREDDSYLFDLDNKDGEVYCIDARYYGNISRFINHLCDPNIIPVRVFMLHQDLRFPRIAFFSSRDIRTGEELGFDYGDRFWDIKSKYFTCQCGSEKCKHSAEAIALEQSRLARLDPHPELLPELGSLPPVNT
# Assay: qHTS Assay for Inhibitors of Histone Lysine Methyltransferase G9a; further: nearly all actives have a fitted effect of over 75% in size
# Conditions: G9a H3K9 monomethylation, AlphaScreen, 2 h; activity, negative = inhibition: at 59 µM (top of the series) unless noted
# In short: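 G9a (20 nM) was preincubated 15 min with compound, then reacted 2 h at room temperature with 500 nM biotin-H3K9 peptide and 20 µM SAM. Monomethyl-H3K9 detected by AlphaScreen using anti-H3K9me1 antibody.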
# On the % scale 0 is the no-effect control and ±100 the full control effect; potency means the concentration at half of the fitted maximal effect; tags describe the fitted curve by direction and shape.
Structure (SMILES),Potency,"activity, negative = inhibition"
Cc1ccc(-c2nc(S(=O)(=O)c3ccc(C)cc3)c(N3CCCCC3)o2)cc1,active: 15.8 µM,
CC(=O)Nc1cccc(NC(=O)CSc2ccc3nnc(CCNC(=O)c4ccccc4)n3n2)c1,"inconclusive: 89.1 µM [inhibitor, partial curve, poor fit]",
COc1cc(S(=O)(=O)n2ccnc2C(C)C)ccc1Br,,inactive: -1.12%
Cc1ccc(Cn2ccnc2SCC(=O)NC2CCCC2)cc1,"inconclusive: 5.62 µM [inhibitor, single point]",
O=C(NCc1ccccc1)c1cnc2n(c1=O)CCS2,"inconclusive: 25.1 µM [inhibitor, single point]",
CCCN1C(=O)/C(=C/c2c(N3CCNC(=O)C3CC(=O)OCC)nc3c(C)cccn3c2=O)SC1=S (configuration not stated),"inconclusive: 70.8 µM [inhibitor, single point]",
COc1cc(OC)cc(C(=O)Nc2c(C)nn(-c3ccccc3)c2C)c1,"inconclusive: 39.8 µM [inhibitor, single point]",
COc1ccc(N2CCN(C(=O)c3c4c(nc5ccccc35)C(=O)N(C3CCCCC3)C4)CC2)cc1,"inconclusive: 31.6 µM [inhibitor, single point]",
COc1ccc(Nc2nc(N)c([N+](=O)[O-])c(N3CCOCC3)n2)cc1,"inconclusive: 44.7 µM [inhibitor, partial curve]",
Cc1ccc(SCC(=O)N(C)CC(=O)Nc2cccc(F)c2)cc1,,inactive: 2.87% [at 0.501 µM]
Cc1cc(C)n2nc(SCc3nnc(-c4ccc(F)cc4)o3)nc2n1,active: 31.6 µM,
O=C(NCC1CCCO1)c1ccc2c(c1)N(Cc1ccccc1)C(=O)CS2 (configuration not stated),,inactive: 17.2%
Cc1cc(C)c(S(=O)(=O)N(CC(=O)NCc2cccnc2)C2CCCCC2)c(C)c1,"inconclusive: 2.82 µM [inhibitor, partial curve, poor fit]",
CN(CC(=O)Nc1cccc(F)c1)C(=O)CCc1nc2ccccc2c(=O)[nH]1,active: 44.7 µM,
CCN(CC(=O)Nc1c(F)cccc1F)C(=O)CSCC(=O)Nc1cc(C)on1,"inconclusive: 50.1 µM [inhibitor, partial curve, poor fit]",
COc1ccc(/C=C2\CCC(C3CCCC3)C2=O)cc1 (configuration not stated),,inactive: 15.5% [at 102 µM]
O=c1[nH]c2ccccc2n2c(C(F)(F)F)nnc12,,inactive: 8.9% [at 2.33 µM]
COC(=O)c1c(-c2cccs2)csc1NC(=O)c1ccc(C(C)(C)C)cc1,active: 1.78 µM,
CCC1=NN2C(=N)/C(=C\c3cccn3-c3ccc(Br)cc3)C(=O)N=C2S1,"inconclusive: 3.98 µM [inhibitor, full curve, poor fit]",
CC1=NN2C(=N)/C(=C\c3cc(C)n(-c4ccc(C)cc4)c3C)C(=O)N=C2S1,"inconclusive: 56.2 µM [inhibitor, partial curve, poor fit]",
O=C(CCl)Nc1ccc(N=Nc2ccccc2)cc1,"inconclusive: 8.91 µM [inhibitor, partial curve, poor fit]",

Structure (SMILES),Potency,"activity, negative = inhibition"
O=C(O)c1ccccc1C(=O)Nc1ccc(S(=O)(=O)NC2CCCCC2)cc1,"inconclusive: 39.8 µM [inhibitor, single point]",
COc1ccc(-c2nnc(SCC(=O)c3ccc(NC(C)=O)cc3)o2)cc1OC,,inactive: 0.857%
COc1ccc(C2/C(=C(\O)c3ccc4c(c3)OCCO4)C(=O)C(=O)N2CCCN(C)C)cc1 (configuration not stated),"inconclusive: 89.1 µM [inhibitor, single point]",
CC(=O)N1CCc2cc(S(=O)(=O)NCCC(=O)NCCc3ccc(C)cc3)ccc21,"inconclusive: 1.12 µM [inhibitor, full curve, poor fit]",
CC(C)c1ccc(/C=C/C(=O)NC2CCCCC2)cc1,"inconclusive: 20 µM [inhibitor, single point]",
CCOc1ccccc1OCCCNCc1ccco1,"inconclusive: 39.8 µM [inhibitor, single point]",
O=S(=O)(/N=C/N1CCOCC1)c1ccc(Cl)cc1,"inconclusive: 89.1 µM [inhibitor, partial curve, poor fit]",
COc1ccc(CNC(=O)[C@@H](NC(=O)C2CCN(C(=O)[C@@H](N)Cc3ccccc3)CC2)C(C)C)cc1,,inactive: 6.71% [at 102 µM]
O=C(O)c1cc(S(=O)(=O)Nc2cccc(S(=O)(=O)N3CCCC3)c2)ccc1Cl,"inconclusive: 89.1 µM [inhibitor, partial curve, poor fit]",
O=C(C1CCCO1)N1CCN(S(=O)(=O)c2ccccc2)CC1 (configuration not stated),"inconclusive: 39.8 µM [inhibitor, single point]",
COc1ccc(S(=O)(=O)N2CCN(S(=O)(=O)c3ccc(C(F)(F)F)cc3)CC2)cc1C,"inconclusive: 89.1 µM [inhibitor, partial curve, poor fit]",
OC(COc1ccc2ccccc2c1Br)Cn1cnc(-c2ccccc2)c1 (configuration not stated),"inconclusive: 35.5 µM [inhibitor, partial curve, poor fit]",
COc1ccccc1N1CCN(C(=O)c2ccc3c(c2)CCN3S(C)(=O)=O)CC1,,inactive: 13.1% [at 102 µM]
CCOc1ccc(NS(=O)(=O)c2ccc3[nH]cc(C(=O)N(C)C4CCCCC4)c(=O)c3c2)cc1,"inconclusive: 22.4 µM [inhibitor, partial curve, poor fit]",
CCOC(=O)c1c(C)[nH]c(C(=O)N2CCN(c3ccc(OC)cc3)CC2)c1C,active: 44.7 µM,
Fc1ccc(CNC(=S)NC2CCCC2)cc1,,inactive: 3.25% [at 102 µM]
CCCCN=C1N/C(=C\c2ccco2)C(=O)N1c1ccccc1,active: 44.7 µM,
Cc1ccc2c(=O)cc(C(=O)Nc3c(C(=O)c4ccccc4)oc4ccccc34)oc2c1,,inactive: -4.58%
CCC(C)Oc1nc2ccccc2nc1NS(=O)(=O)c1ccccc1 (configuration not stated),"inconclusive: 8.91 µM [inhibitor, partial curve, poor fit]",
CCn1c(O)c(N=Nc2ccc(Cl)c(C(=O)O)c2)c2ccccc21,,inconclusive: -64.5% [inhibitor]
COc1ccccc1Nc1nc(NCC(C)C)nc(N)c1[N+](=O)[O-],"inconclusive: 56.2 µM [inhibitor, partial curve]",

# Reference: PubChem BioAssay AID504332 (National Center for Advancing Translational Sciences (NCATS), 2011)
